We go through three molecules from article PMC7442955, “Biochemical and functional characterization of a meiosis-specific Pch2/ORC AAA+ assembly” (Life Science Alliance, 2020).

These are yes or no findings as the source states them, for the method shown. For some assays here: Binding seen in cells or lysates may run through a third protein. Some binding calls cover weakened binding; strength is not graded here. For some assays here: Tags and fused reporters may be left off the sequences shown.

The target in one test is T1, Orc5–TAP (budding yeast) (UniProt P50874).
T1 sequence: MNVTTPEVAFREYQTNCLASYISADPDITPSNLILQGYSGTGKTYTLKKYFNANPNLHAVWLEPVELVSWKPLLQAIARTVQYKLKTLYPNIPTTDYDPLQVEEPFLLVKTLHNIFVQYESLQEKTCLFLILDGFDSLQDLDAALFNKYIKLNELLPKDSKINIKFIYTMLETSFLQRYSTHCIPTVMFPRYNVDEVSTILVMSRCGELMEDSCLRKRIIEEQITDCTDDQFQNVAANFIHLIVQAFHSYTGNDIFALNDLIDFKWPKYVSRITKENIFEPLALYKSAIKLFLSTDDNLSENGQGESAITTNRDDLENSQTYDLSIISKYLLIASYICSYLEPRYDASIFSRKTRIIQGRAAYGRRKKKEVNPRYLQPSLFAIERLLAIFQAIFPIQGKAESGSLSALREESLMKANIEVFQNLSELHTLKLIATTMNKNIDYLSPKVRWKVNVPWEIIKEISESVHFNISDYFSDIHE
As to the kind of experiment: co-IP; α-TAP IP (Dynabeads protein G) from lysates of meiotic prophase cells (4-5 h into the meiotic program); IP buffer 50 mM Tris–HCl pH 7.5, 150 mM NaCl, 1% Triton X-100, 1 mM EDTA; also with Benzonase, in ORC1 or orc1-161 backgrounds at 23°C, and in orc2–FRB cells with rapamycin or DMSO.

For another test, the target named is T2, Orc2–TAP (budding yeast) (UniProt P32833).
T2 sequence: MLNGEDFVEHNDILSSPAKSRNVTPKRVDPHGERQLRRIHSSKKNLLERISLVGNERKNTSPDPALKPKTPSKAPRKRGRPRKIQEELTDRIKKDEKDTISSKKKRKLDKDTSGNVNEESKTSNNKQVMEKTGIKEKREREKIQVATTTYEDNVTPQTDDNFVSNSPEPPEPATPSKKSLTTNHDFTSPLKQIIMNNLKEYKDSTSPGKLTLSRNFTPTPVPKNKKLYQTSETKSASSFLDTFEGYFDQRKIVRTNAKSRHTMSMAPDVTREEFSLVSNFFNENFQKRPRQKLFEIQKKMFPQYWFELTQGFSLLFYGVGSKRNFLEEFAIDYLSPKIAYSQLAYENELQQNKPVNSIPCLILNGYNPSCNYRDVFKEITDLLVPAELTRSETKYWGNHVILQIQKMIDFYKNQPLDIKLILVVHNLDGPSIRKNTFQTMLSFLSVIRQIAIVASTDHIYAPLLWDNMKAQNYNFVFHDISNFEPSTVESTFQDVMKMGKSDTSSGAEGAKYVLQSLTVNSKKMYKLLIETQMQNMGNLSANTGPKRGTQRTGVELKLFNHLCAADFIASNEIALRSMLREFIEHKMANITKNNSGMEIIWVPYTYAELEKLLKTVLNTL
Described as above.

The target of the next test is T3, Orc1–TAP (budding yeast) (UniProt P54784).
T3 sequence: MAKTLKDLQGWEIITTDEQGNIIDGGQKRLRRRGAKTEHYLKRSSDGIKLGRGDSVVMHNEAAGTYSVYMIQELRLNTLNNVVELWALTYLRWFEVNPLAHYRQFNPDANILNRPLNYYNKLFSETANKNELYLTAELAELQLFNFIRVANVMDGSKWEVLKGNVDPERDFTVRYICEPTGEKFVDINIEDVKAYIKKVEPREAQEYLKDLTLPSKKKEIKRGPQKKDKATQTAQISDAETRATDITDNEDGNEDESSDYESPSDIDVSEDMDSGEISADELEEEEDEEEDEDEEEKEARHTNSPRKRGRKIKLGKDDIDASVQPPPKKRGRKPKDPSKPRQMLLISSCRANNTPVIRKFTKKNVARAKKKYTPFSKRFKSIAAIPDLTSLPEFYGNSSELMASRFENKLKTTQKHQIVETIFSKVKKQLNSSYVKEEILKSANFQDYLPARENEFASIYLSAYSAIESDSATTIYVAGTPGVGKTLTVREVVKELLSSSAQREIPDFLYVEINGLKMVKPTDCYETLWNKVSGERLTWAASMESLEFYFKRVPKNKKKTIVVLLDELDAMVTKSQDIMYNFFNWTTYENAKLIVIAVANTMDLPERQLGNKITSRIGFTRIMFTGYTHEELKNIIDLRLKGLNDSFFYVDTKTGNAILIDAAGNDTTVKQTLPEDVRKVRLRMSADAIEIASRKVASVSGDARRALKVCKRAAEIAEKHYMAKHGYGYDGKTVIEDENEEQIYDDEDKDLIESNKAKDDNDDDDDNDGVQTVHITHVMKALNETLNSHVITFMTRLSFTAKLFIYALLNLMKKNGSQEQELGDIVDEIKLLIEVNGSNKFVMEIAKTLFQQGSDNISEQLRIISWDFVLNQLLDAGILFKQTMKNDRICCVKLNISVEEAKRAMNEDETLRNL
Described as above.

Test [1] addresses T4, Orc3 (subunit of the insect cell–purified ORC) (budding yeast) (UniProt P54790).
T4 sequence: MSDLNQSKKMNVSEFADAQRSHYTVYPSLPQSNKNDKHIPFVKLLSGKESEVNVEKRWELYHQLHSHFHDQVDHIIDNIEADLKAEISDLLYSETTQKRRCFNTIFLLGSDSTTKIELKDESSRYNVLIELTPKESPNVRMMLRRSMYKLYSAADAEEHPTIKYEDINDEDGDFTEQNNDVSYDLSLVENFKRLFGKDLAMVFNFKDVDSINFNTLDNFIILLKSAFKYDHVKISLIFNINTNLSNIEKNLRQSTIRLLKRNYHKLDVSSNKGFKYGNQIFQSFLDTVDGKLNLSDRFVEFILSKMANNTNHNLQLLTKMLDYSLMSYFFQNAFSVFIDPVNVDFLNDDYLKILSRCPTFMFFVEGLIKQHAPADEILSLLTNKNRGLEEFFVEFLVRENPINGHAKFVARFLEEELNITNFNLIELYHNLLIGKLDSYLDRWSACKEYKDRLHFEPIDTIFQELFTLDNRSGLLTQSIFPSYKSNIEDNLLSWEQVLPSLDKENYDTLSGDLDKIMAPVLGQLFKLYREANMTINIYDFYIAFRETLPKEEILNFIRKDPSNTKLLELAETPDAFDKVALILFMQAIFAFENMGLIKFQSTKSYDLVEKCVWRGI
Briefly: cross-linking; XL-MS: 0.75 μM His–MBP–Pch2 with 1.5 μM His–ORC, 30 mM HEPES pH 7.5, 150 mM NaCl, 2 mM TCEP, 90 min at 4°C; 3 mM DSBU, 25°C, 1 h; MeroX, 2% FDR; both purified.

Test [2] addresses T5, Pch2–E399Q (HA-tagged, expressed in meiotic cells) (budding yeast) (UniProt P38126).
T5 sequence: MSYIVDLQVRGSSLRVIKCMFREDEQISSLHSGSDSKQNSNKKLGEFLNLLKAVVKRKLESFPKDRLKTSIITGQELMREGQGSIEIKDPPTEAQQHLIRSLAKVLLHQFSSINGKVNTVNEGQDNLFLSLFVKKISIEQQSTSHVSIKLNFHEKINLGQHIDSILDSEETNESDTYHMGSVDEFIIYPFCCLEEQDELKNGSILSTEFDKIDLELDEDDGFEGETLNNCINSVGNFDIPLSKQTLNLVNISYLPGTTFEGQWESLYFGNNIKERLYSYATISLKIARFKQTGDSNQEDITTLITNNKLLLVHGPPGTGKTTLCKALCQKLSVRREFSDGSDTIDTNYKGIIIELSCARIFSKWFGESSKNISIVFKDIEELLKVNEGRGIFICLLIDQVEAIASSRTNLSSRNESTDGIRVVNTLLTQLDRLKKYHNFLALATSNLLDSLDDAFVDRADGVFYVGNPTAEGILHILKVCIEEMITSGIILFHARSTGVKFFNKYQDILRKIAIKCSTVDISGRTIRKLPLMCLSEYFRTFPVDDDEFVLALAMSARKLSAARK
Briefly: co-IP; α-HA IP of Pch2–E399Q from lysates of meiotic prophase cells (5 h), in CDC6 and cdc6-mn backgrounds.

B1: Pch2–E399Q (HA-tagged, expressed in meiotic cells) (protein, UniProt P38126 1-564)
chain: MSYIVDLQVRGSSLRVIKCMFREDEQISSLHSGSDSKQNSNKKLGEFLNLLKAVVKRKLESFPKDRLKTSIITGQELMREGQGSIEIKDPPTEAQQHLIRSLAKVLLHQFSSINGKVNTVNEGQDNLFLSLFVKKISIEQQSTSHVSIKLNFHEKINLGQHIDSILDSEETNESDTYHMGSVDEFIIYPFCCLEEQDELKNGSILSTEFDKIDLELDEDDGFEGETLNNCINSVGNFDIPLSKQTLNLVNISYLPGTTFEGQWESLYFGNNIKERLYSYATISLKIARFKQTGDSNQEDITTLITNNKLLLVHGPPGTGKTTLCKALCQKLSVRREFSDGSDTIDTNYKGIIIELSCARIFSKWFGESSKNISIVFKDIEELLKVNEGRGIFICLLIDQVEAIASSRTNLSSRNESTDGIRVVNTLLTQLDRLKKYHNFLALATSNLLDSLDDAFVDRADGVFYVGNPTAEGILHILKVCIEEMITSGIILFHARSTGVKFFNKYQDILRKIAIKCSTVDISGRTIRKLPLMCLSEYFRTFPVDDDEFVLALAMSARKLSAARK
In the case of B1, the binding result with Orc5–TAP (budding yeast), with Orc2–TAP (budding yeast) and with Orc1–TAP (budding yeast) was “binds” in each case.

B2: Orc5 (subunit of the insect cell–purified ORC) (natural protein, budding yeast, UniProt P50874 1-479, looked up)
chain: MNVTTPEVAFREYQTNCLASYISADPDITPSNLILQGYSGTGKTYTLKKYFNANPNLHAVWLEPVELVSWKPLLQAIARTVQYKLKTLYPNIPTTDYDPLQVEEPFLLVKTLHNIFVQYESLQEKTCLFLILDGFDSLQDLDAALFNKYIKLNELLPKDSKINIKFIYTMLETSFLQRYSTHCIPTVMFPRYNVDEVSTILVMSRCGELMEDSCLRKRIIEEQITDCTDDQFQNVAANFIHLIVQAFHSYTGNDIFALNDLIDFKWPKYVSRITKENIFEPLALYKSAIKLFLSTDDNLSENGQGESAITTNRDDLENSQTYDLSIISKYLLIASYICSYLEPRYDASIFSRKTRIIQGRAAYGRRKKKEVNPRYLQPSLFAIERLLAIFQAIFPIQGKAESGSLSALREESLMKANIEVFQNLSELHTLKLIATTMNKNIDYLSPKVRWKVNVPWEIIKEISESVHFNISDYFSDIHE
notes: Orc5, budding yeast; Stood in the assays as a subunit of m16; source: Tnao38 insect cells, co-expressed, purified as part of His–ORC
Consider B2, for which, in test [1], the binding result is “binds”.

B3: Orc1 (found with Pch2–E399Q as bait) (protein, UniProt P54784 1-914)
chain: MAKTLKDLQGWEIITTDEQGNIIDGGQKRLRRRGAKTEHYLKRSSDGIKLGRGDSVVMHNEAAGTYSVYMIQELRLNTLNNVVELWALTYLRWFEVNPLAHYRQFNPDANILNRPLNYYNKLFSETANKNELYLTAELAELQLFNFIRVANVMDGSKWEVLKGNVDPERDFTVRYICEPTGEKFVDINIEDVKAYIKKVEPREAQEYLKDLTLPSKKKEIKRGPQKKDKATQTAQISDAETRATDITDNEDGNEDESSDYESPSDIDVSEDMDSGEISADELEEEEDEEEDEDEEEKEARHTNSPRKRGRKIKLGKDDIDASVQPPPKKRGRKPKDPSKPRQMLLISSCRANNTPVIRKFTKKNVARAKKKYTPFSKRFKSIAAIPDLTSLPEFYGNSSELMASRFENKLKTTQKHQIVETIFSKVKKQLNSSYVKEEILKSANFQDYLPARENEFASIYLSAYSAIESDSATTIYVAGTPGVGKTLTVREVVKELLSSSAQREIPDFLYVEINGLKMVKPTDCYETLWNKVSGERLTWAASMESLEFYFKRVPKNKKKTIVVLLDELDAMVTKSQDIMYNFFNWTTYENAKLIVIAVANTMDLPERQLGNKITSRIGFTRIMFTGYTHEELKNIIDLRLKGLNDSFFYVDTKTGNAILIDAAGNDTTVKQTLPEDVRKVRLRMSADAIEIASRKVASVSGDARRALKVCKRAAEIAEKHYMAKHGYGYDGKTVIEDENEEQIYDDEDKDLIESNKAKDDNDDDDDNDGVQTVHITHVMKALNETLNSHVITFMTRLSFTAKLFIYALLNLMKKNGSQEQELGDIVDEIKLLIEVNGSNKFVMEIAKTLFQQGSDNISEQLRIISWDFVLNQLLDAGILFKQTMKNDRICCVKLNISVEEAKRAMNEDETLRNL
For B3, the binding entry in test [2] is “binds”.
